# Test results reported in PubChem BioAssay (NCATS).
# Records with an inconclusive call do not appear. Calls come from the whole dose curve; as a rule, active = well fitted curve in the direction sought with a large enough effect; inconclusive = small, poorly fitted or top-dose-only effect, or another doubt; inactive = no such curve, though single readings can be large; an effect the other way counts as inactive or inconclusive. Some compounds were tested as several samples or in several runs, with calls that do not always agree. Some entries of the source have several records that differ or are many. They are shown here; other results are not. An entry can have further records. Values that stand side by side repeat one measurement across runs, samples, wells, individuals or studies. Brackets tell where a record comes from. A, B and so on number the origins entry by entry.
# How the values were obtained:
# [1] = qHTS of pediatric cancer cell lines to identify multiple opportunities for drug repurposing: Primary screen for DAOY cells (AID 1347090); note: nearly all actives have a fitted effect of over 55% in size
# Method in brief: (§1)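 Eight- or eleven-point concentration series, 48 h treatment at 37 degrees C in growth media; readout CellTiter-Glo luminescence. Potency and efficacy were taken from the concentration-response curves.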
# [2] = qHTS of pediatric cancer cell lines to identify multiple opportunities for drug repurposing: Primary screen for RD cells (AID 1347104); note: nearly all actives have a fitted effect of over 55% in size
# Method in brief: (§2)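 Cells plated at 500-1,000/well in growth medium, compounds added after 5 h. MIPE tested at 11 points (from 0.78 nM), NPC at 8 points (from 0.59 nM). CellTiter-Glo luminescence after 48 h; concentration-response curves from primary screen.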
# [3] = qHTS of pediatric cancer cell lines to identify multiple opportunities for drug repurposing: Primary screen for SK-N-MC cells (AID 1347093)
# [4] = qHTS of pediatric cancer cell lines to identify multiple opportunities for drug repurposing: Primary screen for SJ-GBM2 cells (AID 1347091)
# Method in brief: as §1
# [5] = qHTS of pediatric cancer cell lines to identify multiple opportunities for drug repurposing: Primary screen for Rh41 cells (AID 1347108); note: nearly all actives have a fitted effect of over 70% in size
# Method in brief: as §2
# [6] = qHTS of pediatric cancer cell lines to identify multiple opportunities for drug repurposing: Primary screen for TC32 cells (AID 1347089); note: nearly all actives have a fitted effect of over 60% in size
# Method in brief: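 qHTS, TC32, 48 h drug treatment, CellTiter-Glo luminescence as a proxy for metabolically active cells; primary top concentration 46 µM (MIPE 11-pt, NPC 8-pt); confirmatory 11-pt.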
# [7] = qHTS of pediatric cancer cell lines to identify multiple opportunities for drug repurposing: Primary screen for NB1643 cells (AID 1347099); note: nearly all actives have a fitted effect of over 50% in size
# [8] = qHTS of pediatric cancer cell lines to identify multiple opportunities for drug repurposing: Primary screen for SK-N-SH cells (AID 1347098); note: nearly all actives have a fitted effect of over 65% in size
# Method in brief: (§3)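 Cells (500-1,000/well) rested 5 h, then received compounds for 48 h; metabolically active cells were measured by CellTiter-Glo luminescence. Final concentrations spanned up to 46 µM (MIPE, 11-point) or 0.59 nM-46 µM (NPC, 8-point) in primary screens, 11-point in follow-ups.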
# [9] = qHTS of pediatric cancer cell lines to identify multiple opportunities for drug repurposing: Primary screen for BT-37 cells (AID 1347094)
# Method in brief: as §2
# [10] = qHTS of pediatric cancer cell lines to identify multiple opportunities for drug repurposing: Primary screen for NB-EBc1 cells (AID 1347095)
# [11] = qHTS of pediatric cancer cell lines to identify multiple opportunities for drug repurposing: Primary screen for U-2 OS cells (AID 1347096); note: nearly all actives have a fitted effect of over 50% in size
# Method in brief: (§4)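 Cells (500-1,000/well) in growth media were settled 5 h at 37 degrees C, then given compounds for 48 h. Viability was read as CellTiter-Glo luminescence. Primary runs used MIPE at 11 points (0.78 nM-46 µM) and NPC at 8 points (0.59 nM-46 µM); follow-ups used 11 points.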
# [12] = qHTS of pediatric cancer cell lines to identify multiple opportunities for drug repurposing: Primary screen for Saos-2 cells (AID 1347097); note: nearly all actives have a fitted effect of over 40% in size
# Method in brief: as §2
# [13] = qHTS of pediatric cancer cell lines to identify multiple opportunities for drug repurposing: Primary screen for LAN-5 cells (AID 1347100)
# Method in brief: as §4
# [14] = qHTS of pediatric cancer cell lines to identify multiple opportunities for drug repurposing: Primary screen for BT-12 cells (AID 1347101); note: nearly all actives have a fitted effect of over 25% in size
# Method in brief: as §3
# [15] = qHTS of pediatric cancer cell lines to identify multiple opportunities for drug repurposing: Primary screen for Rh18 cells (AID 1347102); note: nearly all actives have a fitted effect of over 65% in size
# Method in brief: as §4
# [16] = qHTS of pediatric cancer cell lines to identify multiple opportunities for drug repurposing: Primary screen for OHS-50 cells (AID 1347103); note: nearly all actives have a fitted effect of over 40% in size
# Method in brief: as §3
# [17] = qHTS of pediatric cancer cell lines to identify multiple opportunities for drug repurposing: Primary screen for MG 63 (6-TG R) cells (AID 1347105); note: nearly all actives have a fitted effect of over 50% in size
# Method in brief: as §2
# [18] = qHTS of pediatric cancer cell lines to identify multiple opportunities for drug repurposing: Primary screen for control Hh wild type fibroblast cells (AID 1347106); note: nearly all actives have a fitted effect of over 55% in size
# Method in brief: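 Viability after 48 h compound treatment at 37C, 500-1,000 cells/well, read as ATP luminescence with CellTiter-Glo. Primary screens used 11-point (MIPE, 0.78 nM-46 µM) or 8-point (NPC, 0.59 nM-46 µM) final concentrations; follow-up screens used 11-point dilutions.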
# [19] = system: Zika virus NS2B-NS3 protease; assay: Primary screen GU AMC qHTS for Zika virus inhibitors (AID 1347154); note: nearly all actives have a fitted effect of over 70% in size
# Method in brief: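 Unlinked Zika NS2B hydrophilic domain/NS3 protease domain noncovalent complex (25 nM final) in 10 mM Tris-HCl pH 8.0, 0.01% Tween 20, with AMC peptide substrate. Fluorescence (ex 340, em 450 nm) change over 15 min, room temperature; percent inhibition fitted to 4-parameter Hill equation.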
# Potency is the fitted concentration of half-maximal effect.
smiles,measurement,setting,value
CN1CCC(=C2c3ccccc3CC(=O)c3sccc32)CC1,Potency,[1],active: 18.7 µM [sample A] and inactive [sample B]
same,Potency,[2],active: 37.2 µM [sample A] and inactive [sample B]
Clc1ccc2nsnc2c1NC1=NCCN1,Potency,[3],active: 11.8 µM [sample A] and inactive [sample B]
C[C@@H]1CC(=O)NN=C1c1ccc(NN=C(C#N)C#N)cc1,Potency,[4],inactive [sample A] and inactive [sample B] and active: 23.5 µM [sample C]
same,Potency,[5],inactive [sample A] and active: 20.9 µM [sample B]
Cc1cc(C(C)(C)C)c(O)c(C)c1CC1=NCCN1,Potency,[3],active: 16.6 µM [sample A] and inactive [sample B]
CN(C)CCOC(c1ccccc1)c1ccccc1,Potency,[6],active: 8.29 µM [sample A] and inactive [sample B]
same,Potency,[3],active: 5.9 µM [sample A] and inactive [sample B]
same,Potency,[7],active: 16.6 µM [sample A] and inactive [sample B]
COc1ccc2c(c1)c(CC(=O)O)c(C)n2C(=O)c1ccc(Cl)cc1,Potency,[1],inactive [sample A] and active: 18.7 µM [sample B]
same,Potency,[8],inactive [sample A] and active: 19.2 µM [sample B]
same,Potency,[7],inactive [sample A] and active: 16.6 µM [sample B]
Cn1cnc2c1c(=O)[nH]c(=O)n2C,Potency,[4],inactive [sample A] and active: 13.2 µM [sample B]
same,Potency,[3],inactive [sample A] and active: 10.5 µM [sample B]
same,Potency,[9],inactive [sample A] and active: 27.3 µM [sample B]
same,Potency,[10],inactive [sample A] and active: 26.4 µM [sample B]
same,Potency,[11],inactive [sample A] and active: 18.7 µM [sample B]
same,Potency,[12],inactive [sample A] and active: 18.7 µM [sample B]
same,Potency,[13],inactive [sample A] and active: 26.4 µM [sample B]
same,Potency,[14],inactive [sample A] and active: 24.3 µM [sample B]
same,Potency,[15],inactive [sample A] and active: 26.4 µM [sample B]
same,Potency,[16],inactive [sample A] and active: 19.3 µM [sample B]
same,Potency,[2],inactive [sample A] and active: 26.4 µM [sample B]
same,Potency,[17],inactive [sample A] and active: 23.5 µM [sample B]
same,Potency,[5],inactive [sample A] and active: 18.7 µM [sample B]
CC(C)C(=O)Nc1ccc([N+](=O)[O-])c(C(F)(F)F)c1,Potency,[4],inactive [sample A] and active: 590 nM [sample B]
same,Potency,[3],inactive [sample A] and active: 2.64 µM [sample B]
same,Potency,[7],inactive [sample A] and active: 5.9 µM [sample B]
same,Potency,[2],inactive [sample A] and active: 935 nM [sample B]
same,Potency,[17],inactive [sample A] and active: 9.35 µM [sample B]
same,Potency,[18],inactive [sample A] and active: 14.8 µM [sample B]
Cc1cn([C@H]2C[C@H](N=[N+]=[N-])[C@@H](CO)O2)c(=O)[nH]c1=O,Potency,[3],active: 2.96 µM [sample A] and inactive [sample B]
same,Potency,[8],active: 19.2 µM [sample A] and inactive [sample B]
Cc1cn([C@H]2C=C[C@@H](CO)O2)c(=O)[nH]c1=O,Potency,[1],active: 42.9 µM [sample A] and inactive [sample B]
same,Potency,[3],active: 48.1 µM [sample A] and inactive [sample B]
OCCN(CCO)c1nc(N2CCCCC2)c2nc(N(CCO)CCO)nc(N3CCCCC3)c2n1,Potency,[1],active: 29.6 µM [sample A] and inactive [sample B]
same,Potency,[2],active: 29.6 µM [sample A] and inactive [sample B]
same,Potency,[17],active: 29.6 µM [sample A] and inactive [sample B]
same,Potency,[19],active: 21.2 µM [sample A] and inactive [sample B]
